In all, about 33,000 sequences were measured (“E-score (-0.5 to 0.5)”: median about -0.01, highest 2% from about 0.26 on). The list shows a part of the results.
The sequences below were run against Ste12 (UniProt P13574) (assay: PBM E-score (8-mer binding enrichment) (E-score (-0.5 to 0.5)); higher = stronger / more preferred TF binding; most listed sequences are background and not binding sites). Conditions: protein concentration: 200 nM; construct: GST-DNA-binding domain.
In short: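 Bound GST-tagged yeast transcription factors, applied at about 100-200 nM to double-stranded universal all-10-mer Agilent arrays, were detected with fluorescent anti-GST. Scans were normalised with masliner. A modified Wilcoxon-Mann-Whitney statistic, the E-score, was assigned to each ungapped eight-base word pooled with its reverse complement by the Universal PBM Analysis Suite.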

Sequence | PBM E-score
GAAAATCA | 0.118
CAGGACAA | 0.144
AGTACTGC | -0.147
ATGTGCTG | 0.133
GTCTGTGA | 0.0417
AGGAACCA | -0.268
CCAATCAC | -0.0351
TCTAACAA | 0.127
TCCCGGCA | -0.0651
CCACCCCC | -0.0505
CTTGTATA | -0.0388
CAAGAAAG | 0.141
GTTGTGTA | 0.0886
AATTCTAT | 0.0786
CCTTTGCG | 0.162
ACTGAATC | 0.0261
GAGTCGTA | -0.179
GGCCCGTA | -0.18
AGCCCTGA | -0.222
AGGAATCA | 0.0528
CTTCCGAA | 0.104
TCCTAAAA | 0.0803
CACCAGAA | -0.0374
AGGACACA | 0.00384
GATGACGA | 0.0199

Sequence | PBM E-score
GATCGTTA | -0.0412
CCAGGCGA | -0.162
ATCAGCTG | 0.0946
CCAATGAC | -0.0488
CGGCCACC | -0.0949
TAACCCCA | -0.157
GCATCGAC | 0.0526
ATGCGGCC | 0.0224
GTCAGACA | -0.0151
CCCTTGCA | -0.182
GGAGACGA | -0.0114
GCCATGAA | -0.0142
CATACGCG | -0.00363
AATTGCTG | 0.0957
ATACCAAC | 0.0815
ACACGGCT | -0.0225
ATAGCATC | -0.082
AATTTCGC | 0.155
ATACGGCG | 0.15
GATCCGGA | -0.0296
ATATTTAG | 0.157
ATACACAG | -0.054
GGGTTATA | -0.0764
CATAAAGC | -0.0171
AGGAATAC | -0.0374

Sequence | PBM E-score
TGGGGCAA | -0.0548
CGGGTATC | 0.0554
GCGGTCGA | 0.00673
TTAGGAAA | 0.292
CTAGAAGA | 0.106
AAGCTCCA | -0.0211
ACCGGCCC | -0.273
CGCCAGAA | 0.0935
CATTCCAA | -0.131
GTAAGTGA | -0.0696
CGATATGA | 0.0545
ACTTGCTA | -0.0892
ACAGGTTC | -0.119
AAGTAGGA | -0.102
CGATACCG | -0.129
CCCATCGA | 0.125
AGCAGCCC | -0.198
ACATAAAG | 0.12
GGGCTCTA | -0.0629
TATGCAGA | -0.105
CATTAAGA | -0.0403
CAGTTTTC | 0.105
AGCCTGAG | -0.163
AATGTCAA | 0.165
AGACAACC | 0.0678

Sequence | PBM E-score
ATGCACAG | -0.111
AAAACAGG | -0.0182
CAGTCAAC | -0.114
GGTCGGAA | 0.15
AGGACGTA | -0.224
ATGAGTCG | -0.164
GACAGCTA | -0.215
ATTCTGGG | -0.0782
CCCGCGGA | 0.122
AAACCAAG | 0.195
AATGCTGG | 0.074
AGACTCGC | -0.201
ACGGGGCA | -0.123
CATACTCC | 0.0984
AGTTGCTG | -0.127
AAGATACG | 0.08
CGCATAAG | 0.0279
GCTGAAAC | 0.485
AATTACTA | 0.00237
CATATTAC | 0.157
ACCCCCGT | -0.079
CCTTACGC | -0.062
CTCCTCCC | -0.0845
AATTGCTA | 0.0459
GCAGATGA | -0.0285

Sequence | PBM E-score
ACCAAGGC | -0.141
CAAACCGG | 0.158
CGCAAACG | 0.0321
CGGCGCTA | -0.12
AGCAGGTA | 0.0954
GTATAGAC | -0.0331
CCTATGTA | -0.162
AGGGTAAC | 0.00389
CGATGAGA | 0.0105
ATTATCAG | 0.0839
AGATGTAC | -0.11
ATTAAATA | 0.292
ATACAGGC | 0.063
CCTGCAAC | 0.101
CTCTACAC | -0.11
ACCAGGTC | -0.0684
AGACGAAC | 0.00631
GGGCTCAC | -0.243
CATGTGGA | -0.047
ATCACACC | 0.116
CGATTCAA | 0.0422
ACGAATCT | 0.165
GCCACAAA | 0.0992
CAGACCGA | 0.072
CTTGATCA | 0.12

Sequence | PBM E-score
AAGGTCCC | -0.279
ACGGTAAC | 0.155
ATCCGGGA | -0.12
GCTCTGAA | 0.0178
AGTGTCCG | -0.151
ATAGTCAC | 0.0501
AGGATATC | -0.109
ATCTGAAT | 0.0272
CCGTTGCC | -0.253
CCCGGCGC | -0.132
AGGGGGAG | -0.182
AGCCGTTG | -0.24
ACTGAAGA | 0.142
AAATCCTA | 0.229
AGAACCGG | 0.012
ACGCCTCC | -0.166
ATCCCCAG | -0.149
CACCGAAA | 0.146
CTCACAGC | -0.0675
ACCAATTG | -0.0793
ATCTGCGG | 0.0963
CATAGGAG | 0.0327
ACTAACCA | 0.114
GCGCCTAA | -0.0168
ACCCGACG | 0.0962

Sequence | PBM E-score
AGAGATTA | 0.132
AGTCATTG | -0.0744
CCACGGCA | 0.14
TCAGGCCA | 0.0237
AGTGTTAG | 0.0172
TAAGGCAA | 0.0326
ATACCTTA | 0.128
AGCGGAAA | 0.123
ACTCTCAT | -0.141
CCATGTAA | 0.0304
AGATACCA | 0.155
CCGAACTC | -0.0154
AGTGCAGG | -0.0794
GGCTGTCA | -0.245
ACAGGGAG | -0.087
GAATCTGA | -0.0846
TCACACAA | 0.0137
AACGCACG | 0.146
ACAATTTA | 0.163
ATGCGACA | 0.24
ACACCCTC | -0.0664
GGCCGGCC | 0.0742

Reference: the supplement of paper PMC3334620
